Measurements: PubChem BioAssay AID504832 (National Center for Advancing Translational Sciences (NCATS), 2011)
Among all 310,000 compounds or so, about 18,000 (5.8%) were called active. Inconclusive means that the source gave no clear call. Such entries were picked first, then a sample of the others. The call rests on the fitted dose curve; in most records, active means well fitted inhibition curve with a large enough effect; inconclusive means small, poorly fitted or top-dose-only effect, or another doubt; inactive means no such curve, though single readings can be large or run the other way. Potencies of inconclusive entries are left out as doubtful fits.

Test: Primary qHTS for delayed death inhibitors of the malarial parasite plastid, 48 hour incubation
Settings: P. falciparum luciferase growth in erythrocytes; series mostly up to 28.7 µM; activity change, negative = inhibition: at the top concentration
Summary of the method: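 Erythrocytes infected with P. falciparum carrying an integrated firefly luciferase reporter (2% hematocrit, 0.1% parasitemia final) were exposed to compounds in RPMI 1640 with 0.5% Albumax at 37 C, 5% CO2. Growth inhibition was scored as reduced luminescence.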
On the % scale 0 is the no-effect control and ±100 the full control effect; potency means the concentration at half of the fitted maximal effect; tags describe the fitted curve by direction and shape.

Structure (SMILES) | activity change, negative = inhibition | Potency
Nc1c(C(=O)CSc2nnnn2-c2ccc(O)cc2)c(=O)[nH]c(=O)n1C1CC1 | inactive: 37.4% | 
Cc1ccc(OCC(=O)Nc2ccccc2-c2ccccc2)cc1 | inactive: 76.7% | 
Cc1ccc(N2C(=O)C(NC(=O)c3ccccc3)(C(F)(F)F)C3=C2CC(C)(C)CC3=O)cc1 (stereo not given) |  | inconclusive [inhibitor, partial curve, poor fit]
CC(=O)Nc1ccc(-n2c(C)ccc2C)cc1 |  | inconclusive [inhibitor, full curve]
O=C(Nc1cccc(Cl)c1)Nc1nc(-c2ccc(Cl)cc2)cs1 |  | inconclusive [inhibitor, single point]
Cc1ccc(-n2c(O)c(/C=C/C=Nc3ccccc3)c(=O)[nH]c2=O)cc1 |  | inconclusive [inhibitor, full curve, poor fit]
Cc1cc(C)c(NC(=O)CN(C2CCCCC2)C2CCCCC2)c(C)c1 |  | inconclusive [inhibitor, partial curve, poor fit]
CCCSC1=C(C#N)C(c2ccc(OC)cc2)C2=C(CC(C)(C)CC2=O)N1 (stereo not given) |  | inconclusive [inhibitor, partial curve]
Cc1cc(NC(=O)c2cc(-c3ccc(Br)cc3)on2)no1 | inactive: 6.47% | 
Cc1nnc(N/N=C/c2cc([N+](=O)[O-])c(N3CCC(C)CC3)cc2N2CCC(C)CC2)n1N |  | active: 5.86 µM
c1ccc2c(c1)CCN(C1=Nc3cccc4cccc1c34)C2 |  | inconclusive [inhibitor, full curve, poor fit]
CC(C)(C)[C@H]1C=C(C(=O)NC2CC2)O[C@@H](OCCCCO)C1 | inactive: -24.8% | 
O=C1NC(=Nc2cccc(O)c2)S/C1=C\c1cccc([N+](=O)[O-])c1 | inactive: -9.36% | 
COC(=O)c1sc(N)c(C(=O)OC)c1COC(=O)[C@@H](NS(=O)(=O)c1cccc(Cl)c1)C(C)C |  | inconclusive [inhibitor, single point]
CN(CC(=O)Nc1cccc(F)c1)C(=O)C1CC(=O)N(Cc2ccccc2)C1 (stereo not given) |  | inconclusive [inhibitor, full curve, poor fit]
Cc1ccc2nccc(C(=O)N3CCCC(N4CCN(c5ccc(F)cc5)CC4)C3)c2c1 (stereo not given) |  | inconclusive [inhibitor, partial curve]
CCOC(=O)N1CCN(C(=O)c2nn(-c3ccc(C)cc3)c(=O)c3c2c2ccccc2n3C)CC1 |  | inconclusive [inhibitor, partial curve, poor fit]
CC(CC(=O)NCC1CCCO1)c1ccccc1 (stereo not given) | inactive: -0.0657% | 

Structure (SMILES) | activity change, negative = inhibition | Potency
CCN(C(=O)Cn1ccc(C(F)(F)F)n1)c1c(N)n(Cc2ccccc2)c(=O)[nH]c1=O | inactive: -6.29% | 
CS(=O)(=O)Nc1ccccc1C(=O)OCC(=O)N1CCC(c2ccccc2)=N1 | inactive: -11% | 
Cc1nc(Nc2ccc(O)cc2)c2c3c(sc2n1)CCCC3 |  | active: 14.7 µM
Oc1ccc(C[C@@H]2CNCCN2CCc2cccc3ccccc23)cc1 |  | active: 13.1 µM
CN(C)c1ccc(P(=O)(OCc2ccccc2)C(O)c2ccc(Cl)cc2)cc1 (stereo not given) |  | inconclusive [inhibitor, partial curve]
O=S1(=O)NC(CC2=CCCCC2)C2CCCCC2O1 (stereo not given) | inactive: 6.57% | 
CC(=O)N1CCCc2cc(S(=O)(=O)N3CCCC(C(=O)N4CCN(c5cccc(Cl)c5)CC4)C3)ccc21 (stereo not given) |  | active: 4.15 µM
CCOC(=O)C1=C(C)NC(C)=C(C(=O)OCC)C1C(=O)OCC(=O)NCCc1ccc(S(N)(=O)=O)cc1 |  | inconclusive [inhibitor, partial curve, poor fit]
CCOC(=O)C1=C(C)N=c2s/c(=C/c3cccc([N+](=O)[O-])c3O)c(=O)n2C1c1ccccc1 (stereo not given) |  | inconclusive [inhibitor, partial curve]
CCN(CC)CCNc1nc2cc(OC)c(OC)cc2c2nc(-c3ccccc3)nn12 |  | active: 1.04 µM
Cc1onc(-c2ccccc2)c1C(=O)OCC(=O)NC(C)c1ccc(Cl)cc1 (stereo not given) |  | active: 14.7 µM
CN(Cc1ccccc1Cl)C(=O)CCNC(=O)c1ccco1 |  | inconclusive [inhibitor, full curve, poor fit]
Cc1ccc(S(=O)(=O)NCc2ccc(C(=O)N3CCc4ccccc4C3)cc2)cc1 |  | inconclusive [inhibitor, single point]
C=C(C)CN(CC)c1nc(N)c(C#N)c(CC#N)c1C#N |  | inconclusive [inhibitor, full curve, poor fit]
O=C(CSCc1nc2c(nnn2Cc2ccc(F)cc2)c(=O)[nH]1)Nc1cccc(C(F)(F)F)c1 | inactive: -7.87% | 
COc1ccc(N2CCN(c3oc(Cc4cccc5ccccc45)nc3C#N)CC2)cc1 |  | inconclusive [inhibitor, partial curve]
CC(=O)Nc1ccc(S(=O)(=O)N2CCCC3CCCCC32)cc1 (stereo not given) |  | inconclusive [inhibitor, single point]
